Structures are written as SMILES. “And” between values parts separate entries of the source, which are not always exact repeats. Equal values may be shown once.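 Interpolation was linear, between the two tested concentrations surrounding the appropriate level; five concentrations were tested over 48 hours in 96-well plates. GI50 marks 50% less growth. TGI is the concentration that stops growth completely.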

For the experiment, the system named is NCI-H322M lung. The experiment can be described thus: NCI tumour cell line growth inhibition, 48 h.
On to `O=c1c(Cc2ccc(Cl)cc2)nnc2sc(-c3ccc(-c4ccc(Cl)cc4Cl)o3)nn12`, for which the TGI is > 100 µM.
As to `O=C1OC(=O)C2C3C=CC(C12)C1C2C=CC2C31` (configuration not stated), the TGI was > 100 µM.
Consider `Cc1cccc2c3c(sc12)C(c1ccc(F)cc1)C(C#N)=C(N)O3` (configuration not stated), for which the GI50 is 0.481 µM and the TGI came to 17.5 µM.
As to `NC(CSSCC(N)C(=O)O)C(=O)O` (configuration not stated), the GI50 is > 100 µM and the TGI is > 100 µM.
As for `CC1OC(OC2C(O[C@H]3CC[C@@]4(C)C(=CC[C@H]5[C@@H]6C[C@@H]7O[C@]8(CC[C@@H](C)CO8)[C@@H](C)[C@@H]7[C@@]6(C)CC[C@@H]54)C3)OC(CO)C(O)C2O)C(O)C(O)C1O` (some centres not stated), the TGI came to 5.21 µM.
`COC(=O)C1OC(O[C@H]2CC[C@]3(C)[C@H]4CC=C5[C@@H]6CC(C)(C)CC[C@]6(C(=O)OC6OCC(O)C(O)C6OC6OC(C)C(OC7OCC(O)C(O)C7O)C(OC7OCC(O)(CO)C7O)C6O)[C@H](O)C[C@@]5(C)[C@]4(C)CC[C@H]3C2(C)C)C(O)C(O)C1O` (some centres not stated) yielded a TGI of 6.2 µM.
For the compound `[N-]=[N+]=CC(=O)OCCCCl`, the TGI was > 100 µM.
In the case of `COc1c(N2CCN(CN3C(=O)C(=O)c4cc(Cl)ccc43)C(C)C2)c(F)cc2c(=O)c(C(=O)O)cn(C3CC3)c12` (configuration not stated), the GI50 is 17.5 µM and the TGI is > 100 µM.
As for `CC(C)=CC[C@]12CCN(C)[C@H]1N(S(=O)(=O)c1ccccc1)c1ccccc12`, the TGI is > 100 µM.
Take `O=c1[nH]c(=O)n(COCc2ccccc2)cc1Nc1ccc(Br)cc1`: the TGI is > 100 µM.
For `C(#CP(c1ccccc1)c1ccccc1)P(C#CP(c1ccccc1)c1ccccc1)c1ccccc1`, the TGI is > 100 µM.
Still for that read-out and setting: the value for `CCC(C)C1=C(O)[N+]2([O-])Oc3ccc(-c4c(O)c(O)c(-c5ccc(OC(C)=O)cc5)c(OC(C)=O)c4OC(C)=O)cc3OC2(C(C)CC)C(=O)N1O` (configuration not stated) was > 50 µM; that for `CC1=C(C)CC2(C=C(C(C)(C)C)C(=O)C(C(C)(C)C)=C2)SC1` was 86.2 µM; that for `Cn1cc(C(=O)c2ccccc2)cc(C(=O)c2ccccc2)c1=O` was > 100 µM.
Regarding `CC(=O)c1ccc(NC(=O)C(=O)C(C#N)CC(C)(C)C=O)cc1` (configuration not stated), the TGI was > 100 µM.
In the case of `Cc1cccc(N2C(=O)C3c4[nH]c5ccc(C)cc5c4C4CCC(C(C)(C)C)CC4C3C2=O)c1` (configuration not stated), the TGI is > 100 µM.
As for `COc1cc2oc3c(c(=O)c2c(O)c1/C=C/C(C)C)C(C=C(C)C)Oc1cc(O)ccc1-3` (configuration not stated), the TGI worked out at 29.8 µM.
On to `COc1cc2c(cc1OC)C(=O)/C(=C/c1cc(C)cc(C)c1)C2`, for which the TGI is > 100 µM.
In the case of `Cc1cc(O)c(C2=NN(c3ccc(S(N)(=O)=O)cc3)C(/C=C/c3ccccc3)C2)cc1Cl` (configuration not stated), the GI50 is 5.73 µM and the TGI came to 27.5 µM.
Turning to `CCCCCCNCc1cc(C(C)(C)C)cc(CNCCCCCC)c1O`, the GI50 is 1.66 µM and the TGI worked out at 3.08 µM.
As for `COC1CC(N)C(O)C(C)O1` (configuration not stated), the TGI is > 100 µM.
On the same count and under the same terms, the value for `Cc1ccc2c(c1)nc1n2C(N)=Nc2ccccc2S1` was > 100 µM.
Take `O=Cc1ccc(-c2ccc(-c3nc4ccccc4s3)cc2)s1`: the GI50 is > 100 µM and the TGI is > 100 µM.
Regarding `C[C@H](CCC1SC1(C)C)C1CCC2(C)C3=C(CC[C@]12C)[C@@]1(C)CC[C@H](O)C(C)(C)C1CC3` (some centres not stated), the TGI is > 100 µM.
Take `CC1(C)Cc2c(Br)c(Br)c(Br)c(OCC(O)CN3CCN(c4ccccn4)CC3)c2O1` (configuration not stated): the GI50 was 19.7 µM and the TGI is 43.7 µM.
On to `C/C(=N\Nc1nc2ccccc2s1)c1cc2ccccc2cn1`, for which the TGI amounted to 55.5 µM.
In the case of `Cc1ccc2nc(-c3ccc(C(C)(C)C)cc3)oc(=O)c2c1`, the TGI is > 100 µM.
The same measure, in the same setting: the value for `O=C(NCCCl)SCCO` was > 100 µM; that for `CC1=CP(=O)(c2c(C(C)C)cc(C(C)C)cc2C(C)C)CCC1Cl` (configuration not stated) was 29.1 µM; that for `C=Cn1c([N+](=O)[O-])cnc1/C=C/c1ccc(C(=O)OCCN2CCOCC2)cc1` was > 100 µM.
Take `C=C=CC(NC(=O)c1ccccc1)(C(=O)O)C(F)(F)F` (configuration not stated): the TGI is > 100 µM.
On to `CCSC[C@@H]1C[C@](O)(c2ccc(F)cc2)[C@@H](c2ccc(F)cc2)O1`, for which the GI50 was 20.4 µM and the TGI was 39.4 µM.
Turning to `C[C@@H](CO)NC(=O)c1cc(-c2ccc(Cl)cc2)nn(-c2cnn(C)c2)c1=O`, the GI50 is 29.5 µM and the TGI is > 100 µM.
Turning to `CC(=O)OC1=CC2(OC(C)=O)CC(C)(C)C1C1C(=O)C=CC(=O)C12` (configuration not stated), the TGI was > 100 µM.
With `CCOC(=O)/C=C(\C(=O)OCC)n1cc(C)c(=O)n(Cc2cnnn2COCCOC(C)=O)c1=O`, the TGI was > 73.8 µM.
Regarding `Cc1cc2nc3c(C#N)c4c(c(-c5ccc(Cl)cc5)n3c2cc1C)CCC4`, the TGI was 33 µM.
As to `Cc1nc2cc(Nc3ccccc3C(=O)O)ccc2s1`, the TGI is > 100 µM.
As for `CCOC(=O)c1c(SC(=O)c2ccc(OC)cc2)n(-c2ccccc2)c(=S)n(-c2ccccc2)c1=O`, the TGI is > 100 µM.
Consider `O=C1CN(c2cccc(Cl)c2)C(=O)CN1NCNN1CC(=O)N(c2cccc(Cl)c2)CC1=O`, for which the TGI is > 100 µM.
Regarding `Cc1nc2sc(C(=O)c3ccc(Cl)cc3)c(N)c2c(-c2ccccc2Cl)c1C(=O)Nc1ccccc1`, the TGI is 58.1 µM.
Turning to `NC(=S)N1N=C2c3ccccc3CC[C@H]2[C@@H]1c1ccc(Cl)cc1`, the TGI is > 100 µM.
The compound `Cc1c2c(c(C)c3c1[nH]c1ccccc13)CN(C)CC2` came in with a TGI of 49.7 µM.
Same read-out and setting: the value for `COC1C(N(C)C)=C(c2ccccc2)C(=O)N2CCc3ccccc3C12` (configuration not stated) was > 100 µM; that for `O=C(O)/C=C/c1c[nH]c(=O)[nH]c1=O` was > 500 µM.
For `COc1cc(OC)c2c(c1)OC(c1cccnc1)C(c1ccccc1)C2=O` (configuration not stated), the TGI was > 100 µM.
Regarding `COCCOCCOCCOc1cccc2c1C(=O)c1cccc(OCCOCCOCCOC)c1C2=O`, the TGI was > 100 µM.
Take `Cc1cccc(CC(Cc2ccc(C)cc2C(=O)O)C(=O)O)c1` (configuration not stated): the TGI is > 100 µM.
In the case of `COc1ccc(NCC(=O)Nn2c(-c3ccccc3)nc3ccccc3c2=O)cc1`, the TGI is > 100 µM.
For `C[C@@H]1CC(=O)C[C@@H]2CC[C@H]3[C@@H]4CC[C@H](OC(=O)c5cccc6cc7ccccc7nc56)[C@H]4CC[C@@H]3[C@H]21`, the TGI is > 100 µM.
`O=c1[nH]c(NCc2ccc(Cl)cc2)nc2nc[nH]c12`: the TGI is > 100 µM.
As for `COc1ccc2c(c1)-c1nn(CCCN(C)C)c3ccc([N+](=O)[O-])c(c13)N2`, the TGI was 2.64 µM and 3.93 µM.
With `Cc1ccc(NC(=O)CCc2n[nH]c(=S)o2)cc1`, the TGI was > 100 µM.
With `O=C1N(Cc2ccccc2Cl)c2ccccc2C12NN=C(c1cccc(Cl)c1)S2` (configuration not stated), the GI50 was 1.57 µM and the TGI is 3.13 µM.
For the compound `OCCN(CCO)c1cccc(N(CCO)CCO)n1`, the TGI is > 100 µM.
With `CC(=O)OCC1OC(n2c(S)c(C#N)c(-c3ccccc3)c(C#N)c2=O)C(OC(C)=O)C(OC(C)=O)C1OC(C)=O` (configuration not stated), the GI50 was > 100 µM and 34.6 µM; the TGI was > 100 µM.
As for `O=C1/C(=C/c2ccc(O)cc2)COc2ccc(O)c(O)c21`, the GI50 was 3.69 µM and the TGI is > 100 µM.
For `CN(C)c1ccc(/C=N/S(=O)(=O)c2ccc(-n3c(-c4ccccc4)nc4c(Br)cc(Br)cc4c3=O)cc2)cc1`, in that order: 48.9 µM and > 100 µM.
Turning to `COc1cnc2c(c1)C(=O)c1c-2n(CCCN2CCC(O)CC2)c(=O)c2cc(Cl)ccc12`, the GI50 was 1.28 µM and the TGI was determined as 3.68 µM.
`COc1ccccc1C1(c2c(OC)c(=O)c2=O)SCCCS1`: the TGI was > 100 µM.
For `CCC1(CN(C)C)CC/C(=C\c2ccc(OC)c(OC)c2)C1=O` (configuration not stated), the TGI was > 100 µM.
For `Cn1cc(C2=C(Nc3ccccc3)C(=O)NC2=O)c2ccccc21`, the GI50 was > 25 µM and the TGI is > 25 µM.
`COC1(CC[C@@H](C)COC2OC(CO)C(O)C(O)C2O)O[C@H]2C[C@H]3[C@@H]4CC=C5C[C@@H](OC6OC(CO)C(O)C(OC7OC(CO)C(O)C(O)C7O)C6OC6OC(C)C(O)C(O)C6O)CC[C@]5(C)[C@H]4CC[C@]3(C)[C@H]2[C@@H]1C` (some centres not stated): the TGI worked out at 13.5 µM.
With `NC(=O)CC(N=Cc1nc(-c2ccccc2)oc1O)C(=O)O` (configuration not stated), the TGI was > 100 µM.
Consider `Cl.Fc1c[c-]c(-c2ccccn2)c(F)c1.[Pt].c1ccc([PH+](C[PH+](c2ccccc2)c2ccccc2)c2ccccc2)cc1`, for which the GI50 was 0.316 µM and the TGI amounted to 1.1 µM.
As for `COc1ccc(-c2c3c(nc4n[nH]c(-c5ccc(Cl)cc5)c24)-c2ccccc2C(=O)C3=O)cc1`, the GI50 was 2.47 µM and the TGI stood at 10.1 µM.
`COC(=O)[C@H](Cc1cn(C)cn1)NC(=O)[C@H](C)NC(=O)Nc1cc(C(F)(F)F)cc(C(F)(F)F)c1`: the GI50 was > 10 µM and the TGI was > 10 µM.
Regarding `Brc1cccc(C2ON=C(c3ccccc3)N2C23CC4CC(CC(C4)C2)C3)c1` (configuration not stated), the TGI was > 10 µM.
Turning to `NC(=O)NC1C(C(=O)O)N(Cc2ccccc2)C(=O)N1Cc1ccccc1` (configuration not stated), the TGI was > 100 µM.
Turning to `CCc1c(-c2ccc(OC)cc2)oc(OC)c(C)c1=O`, the TGI is > 100 µM.
Regarding `CC12CCC(CC1)C(C)(C)O2`, the TGI worked out at 92.9 µM.
With `CSc1nc(N)c2c(-c3ccccc3)c3c(nc2n1)CCCC3`, the TGI is > 100 µM.
As to `Nc1nc(Cl)c(Cl)c(NCC2(O)CCC2)n1`, the TGI was > 100 µM.
On the same count and under the same terms, the value for `O=C(CCCN1CCC(C(O)c2ccc(F)cc2)CC1)c1ccc(F)cc1` (configuration not stated) was 94.1 µM; that for `CCOC(=O)Nc1cc2ccccc2c(N=Nc2ccccc2)c1O` was > 100 µM.
Turning to `COc1ccc(C2C(=O)c3c(OC)cc(OC)cc3OC2c2cccnc2)cc1` (configuration not stated), the TGI is > 100 µM.
The same measure, in the same setting: the value for `C/C(N=NS(=O)(=O)c1ccc([N+](=O)[O-])cc1)=C1\C=CC=CN1O` was > 100 µM.
The same measure, in the same setting: the value for `O=C(NO)NCCCl` was > 100 µM; that for `Cc1ccc(C2NC(=O)c3ccccc3N2)c(C)c1` (configuration not stated) was > 100 µM.
On to `C=C(C(=C)P(=S)(C(C)C)C(C)C)P(=S)(C(C)C)C(C)C`, for which the TGI is > 100 µM.
Consider `CC1(C)O[C@@H]2C[C@H]3[C@@H]4C[C@H](F)C5=CC(=O)C=C[C@]5(C)[C@@]4(F)[C@@H](O)C[C@]3(C)[C@]2(C(=O)CO)O1`, for which the TGI was > 100 µM.
`CN(CCc1ccccn1)C(=S)N/N=C(\c1ccccc1)c1ccccn1` yielded a TGI of 3.66 µM.
On to `Nc1nc(N)c2nc3c(nc2n1)CCCCCCCCCC3`, for which the GI50 is 0.827 µM and the TGI was > 100 µM.
In turn, `COc1cc2c(/C=C3/C(=O)N(C)c4ccc(O)cc43)c(Cl)[nH]c2cc1C` gave a TGI of 22.4 µM.

Source of the values: PubChem BioAssay (NCI).
